Assay results: PubChem BioAssay AID624255 (Broad Institute, 2012)
About 4,600 (6%) of roughly 77,000 compounds were called active. The inconclusive results got no clear call from the source; some entries with a clear call stand among them for comparison.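 Rule for the calls: active = mean inhibition above about 93%, with at least 55% of replicates each passing it (limit read from the data, passing the limit was not always enough); inconclusive = only one of those two conditions holds; inactive = neither condition holds.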

assay: T. cruzi intracellular proliferation inhibitors, primary screen, cell-based, beta-gal Tulahuen parasites, NIH3T3 host, luminescence (AID 624255); conditions: T. cruzi beta-gal in NIH3T3, GalScreen luminescence, 90 h; at 8.34 µM; stronger effect = higher value

inhibition, inactive:
Cc1ccc(S(=O)(=O)N(C)C[C@@H]2Oc3ccc(NC(=O)CCN4CCOCC4)cc3C(=O)N([C@@H](C)CO)C[C@@H]2C)cc1 25.2%
CCCC#Cc1ccc2c(c1)O[C@@H](CN(C)C(=O)C1CC1)[C@@H](C)CN([C@@H](C)CO)S2(=O)=O 61.4%
COc1ccc(-c2cnc3c(c2)C(=O)N([C@H](C)CO)C[C@@H](C)[C@@H](CN(C)C(=O)Cc2ccccn2)O3)cc1 7.28%
CNC(=O)C[C@@H]1CC[C@H]2[C@H](COc3ccc(NC(=O)C(C)C)cc3C(=O)N2C)O1 -9.69%
CCC(=O)Nc1ccc2c(c1)C(=O)N(C)C[C@H](OC)[C@@H](C)CN(C(=O)c1ccncc1)[C@@H](C)CO2 7.72%
C[C@H](CO)N1C[C@H](C)[C@@H](CN(C)C(=O)NC2CCCC2)Oc2ncc(C#CC3CCCCC3)cc2C1=O 94.7%
COC(=O)C[C@@H]1CC[C@@H]2[C@@H](COc3ccc(NS(=O)(=O)c4ccccc4Cl)cc3C(=O)N2C)O1 6.07%
C[C@@H]1CN([C@@H](C)CO)C(=O)Cc2cc(NC(=O)Cc3cn(C)c4ccccc34)ccc2O[C@H]1CN(C)S(=O)(=O)c1ccccc1 21.6%
O=C(C[C@@H]1CC[C@@H](NS(=O)(=O)c2ccccc2)[C@@H](CO)O1)NCCN1CCCCC1 37.7%
CN1c2ccc(-c3ccc(F)cc3)cc2[C@H]2[C@H](CCN2C(=O)Cc2ccccn2)[C@H]1CO 5.1%
COc1ccc(S(=O)(=O)Nc2ccc3c(c2)C(=O)N([C@@H](C)CO)C[C@H](C)[C@@H](CN(C)S(=O)(=O)c2cccs2)OCCCC[C@H](C)O3)cc1 92.5%
C[C@@H]1CN([C@H](C)CO)C(=O)Cc2cc(NS(=O)(=O)c3ccc(Cl)cc3)ccc2O[C@@H]1CN(C)C(=O)Nc1ccc2c(c1)OCO2 19.7%
CCCNC(=O)[C@@H]1N[C@@H]2c3ccc(-c4cccc(F)c4)c(=O)n3C[C@@H]2[C@H]1CO -23.5%
COc1ccc(S(=O)(=O)N(C)C[C@H]2OCCCC[C@H](C)Oc3ccc(NS(=O)(=O)c4cn(C)cn4)cc3C(=O)N([C@H](C)CO)C[C@@H]2C)cc1 32.6%
Cc1noc(C)c1S(=O)(=O)Nc1ccc2c(c1)C(=O)N([C@H](C)CO)C[C@@H](C)[C@@H](CN(C)S(=O)(=O)c1cccs1)OCCCC[C@@H](C)O2 79.9%
O=C([C@@H]1[C@@H](CO)[C@@H]2Cn3c(ccc(C4=CCCC4)c3=O)[C@@H]2N1CC1CC1)N1CCCCC1 57.2%

inhibition, active:
COc1ccc(NC(=O)Nc2ccc3c(c2)C(=O)N([C@H](C)CO)C[C@@H](C)[C@H](CN(C)S(=O)(=O)c2cccs2)OCCCC[C@@H](C)O3)cc1 108%
C[C@@H]1CCCCO[C@@H](CN(C)C(=O)C2CCCCC2)[C@@H](C)CN([C@@H](C)CO)C(=O)c2cc(NC(=O)Nc3ccc(C(F)(F)F)cc3)ccc2O1 120%
C[C@@H]1CN([C@@H](C)CO)S(=O)(=O)c2ccc(-c3ccncc3)cc2O[C@H]1CN(C)Cc1ccccn1 114%
C[C@H](CO)N1C[C@H](C)[C@@H](CN(C)C(=O)Nc2ccccc2)OCCCC[C@H](C)Oc2ccc(NC(=O)Nc3ccccc3)cc2C1=O 102%
C[C@@H]1CCCCO[C@@H](CN(C)S(=O)(=O)c2ccccc2)[C@H](C)CN([C@H](C)CO)C(=O)c2cc(NC(=O)Nc3ccc(F)cc3)ccc2O1 99.4%
O=C(c1ccccn1)N1CC[C@@H]2[C@@H](CO)Nc3ccc(-c4ccccc4)cc3[C@@H]21 105%
COc1ccc(-c2ccc([C@H]3[C@@H](C#N)N(C(=O)C4CC4)[C@@H]3CO)cc2)cc1 106%

inhibition, inconclusive:
C[C@@H]1CN([C@H](C)CO)C(=O)c2cc(NS(=O)(=O)c3ccc(Cl)cc3)ccc2O[C@@H](C)CCCCO[C@H]1CN(C)C(=O)C1CCCCC1 101%
C[C@@H]1CCCCO[C@H](CN(C)C(=O)NC2CCCCC2)[C@H](C)CN([C@H](C)CO)C(=O)c2cc(NS(=O)(=O)c3ccc(Cl)cc3)ccc2O1 101%
CCCC#Cc1ccc([C@H]2[C@H]3CN(S(=O)(=O)c4ccccc4F)CCCCN3[C@H]2CO)cc1 108%
C[C@@H]1CN([C@@H](C)CO)C(=O)c2cc(NC(=O)Nc3ccc4c(c3)OCO4)ccc2O[C@@H]1CN(C)Cc1ccc(Cl)c(Cl)c1 92.5%
CC(=O)N1CCCCN2[C@@H](CO)[C@@H](c3ccc(-c4cccc(C)c4)cc3)[C@@H]2C1 96.5%
C[C@@H]1CCCCO[C@@H](CN(C)Cc2ccc3c(c2)OCO3)[C@H](C)CN([C@H](C)CO)C(=O)c2cc(NC(=O)Nc3ccc(F)cc3)ccc2O1 96.9%
C[C@H](CO)N1C[C@H](C)[C@@H](CN(C)Cc2ccc(C(=O)Nc3ccccc3N)cc2)Oc2c(NC(=O)c3ccc(-c4nccs4)cc3)cccc2C1=O 98.1%
C[C@H]1CN([C@@H](C)CO)C(=O)c2c(c3ccccc3n2C)-c2ccccc2CO[C@H]1CN(C)Cc1cccnc1 104%
Cc1cccc(-c2ccc([C@@H]3[C@@H](CO)N4CCCCN(C(=O)c5cccnc5)C[C@H]34)cc2)c1 95.1%
O=C([C@H]1[C@H](CO)[C@H]2Cn3c(ccc(-c4cccc(F)c4)c3=O)[C@H]2N1Cc1cocn1)N1CCCCC1 96.8%
C[C@@H]1CCCCO[C@@H](CN(C)C(=O)Nc2ccc3c(c2)OCO3)[C@H](C)CN([C@H](C)CO)C(=O)c2cc(NS(=O)(=O)c3ccc(Cl)cc3)ccc2O1 98.5%
CO[C@@H]1CN(C)C(=O)c2cc(NC(=O)c3cc(C)on3)ccc2OC[C@H](C)N(CC2CC2)C[C@H]1C 46.9%
C[C@@H]1CN([C@H](C)CO)C(=O)c2cc(NS(=O)(=O)c3cccs3)ccc2O[C@@H](C)CCCCO[C@@H]1CN(C)Cc1ccc(Cl)c(Cl)c1 128%
COc1cccc(C#Cc2ccc3c(c2)O[C@@H](CN(C)C(=O)c2ccccn2)[C@@H](C)CN([C@H](C)CO)S3(=O)=O)c1 102%
O=S(=O)(c1ccc(F)cc1)N1CCCCN2[C@@H](CO)[C@H](c3ccc(C#CC4CC4)cc3)[C@@H]2C1 118%
C[C@H]1CN([C@@H](C)CO)C(=O)Cc2cc(NC(=O)CCCN(C)C)ccc2O[C@@H]1CN(C)C(=O)Nc1ccc2c(c1)OCO2 98.2%
C[C@@H]1CN([C@@H](C)CO)C(=O)c2cc(C#Cc3ccccn3)cnc2O[C@@H]1CN(C)Cc1cncnc1 87.1%
COc1ccc(NC(=O)Nc2ccc3c(c2)C(=O)N([C@H](C)CO)C[C@H](C)[C@H](CN(C)S(=O)(=O)c2ccc(OC)cc2)OCCCC[C@H](C)O3)cc1 93.1%
O=C(NCc1ccc(F)cc1)[C@@H]1[C@@H](CO)[C@@H]2Cn3c(cccc3=O)[C@H]1N2 95.7%
Cc1cccc(-c2ccc([C@H]3[C@H](CO)N4CCCCN(Cc5ccncc5)C[C@@H]34)cc2)c1 95.6%
OC[C@H]1[C@H](c2ccc(C#Cc3ccccc3)cc2)[C@@H]2CN(CC3CCOCC3)CCCCN12 96.4%
C[C@@H]1CN([C@H](C)CO)C(=O)c2ccccc2-c2ccccc2CO[C@H]1CN(C)C(=O)Nc1ccnc(N2CCOCC2)c1 97.7%
CCCC#Cc1ccc([C@H]2[C@@H](C#N)N(C(=O)C3CC3)[C@H]2CO)cc1 98%
C[C@H]1CN([C@@H](C)CO)S(=O)(=O)c2ccc(-c3cccnc3)cc2O[C@@H]1CN(C)Cc1ccncc1 108%
O=C(C1CC1)N1CCCCN2[C@@H](CO)[C@H](c3ccc(-c4cccc(F)c4)cc3)[C@@H]2C1 96.1%
COc1ccc(NC(=O)Nc2ccc3c(c2)C(=O)N([C@@H](C)CO)C[C@H](C)[C@H](CN(C)C(=O)Nc2ccc(C(F)(F)F)cc2)OCCCC[C@H](C)O3)cc1 122%
C[C@@H]1CN([C@H](C)CO)C(=O)c2cc(NC(=O)Nc3cccc4ccccc34)ccc2O[C@@H](C)CCCCO[C@@H]1CN(C)Cc1ccc(C(F)(F)F)cc1 119%
CCCC#Cc1ccc2c(c1)O[C@@H](CN(C)Cc1ccc3c(c1)OCO3)[C@H](C)CN([C@@H](C)CO)S2(=O)=O 96.1%
CC(C)C#Cc1ccc2c(c1)O[C@@H](CN(C)Cc1cccnc1)[C@@H](C)CN([C@H](C)CO)S2(=O)=O 104%
C[C@@H]1CN([C@@H](C)CO)S(=O)(=O)c2ccc(C#CCN(C)C)cc2O[C@@H]1CN(C)Cc1ccccn1 73.5%
O=C(Nc1ccccc1)N1CCCCN2[C@@H](CO)[C@H](c3ccc(C4=CCCCC4)cc3)[C@@H]2C1 105%
C[C@H]1CN([C@@H](C)CO)C(=O)Cc2cc(NC(=O)CCCCCC(=O)Nc3ccccc3N)ccc2O[C@H]1CN(C)Cc1ccc2c(c1)OCO2 119%
CCCN(C)C[C@@H]1OCCCC[C@H](C)Oc2ccc(NS(C)(=O)=O)cc2C(=O)N([C@@H](C)CO)C[C@H]1C 95.5%
